Whole data set: some 110,000 compounds, median “z-score” near -0.1, cut for the highest 2% near 2. Some of the results follow. Calls of active or inactive are those of the source.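 How the source made its calls: active means z-score in the third read window above 3 or below -3; inactive means the rest.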
Each compound was assayed against Metabotropic glutamate receptor 8 (Rattus norvegicus) (UniProt P70579) (assay: mGluR8 Gi/Go-coupled signaling modulation – cell-based, rat, thallium flux, HTS, primary screen (AID 488969)). Conditions: HEK293 rat mGluR8, GIRK (G protein-gated inwardly rectifying potassium channel) thallium flux, FluoZin2; at 10 µM; stronger effect = higher value; submaximal glutamate (EC20) added with thallium.
UniProt P70579, sequence (P70579 whole entry, looked up): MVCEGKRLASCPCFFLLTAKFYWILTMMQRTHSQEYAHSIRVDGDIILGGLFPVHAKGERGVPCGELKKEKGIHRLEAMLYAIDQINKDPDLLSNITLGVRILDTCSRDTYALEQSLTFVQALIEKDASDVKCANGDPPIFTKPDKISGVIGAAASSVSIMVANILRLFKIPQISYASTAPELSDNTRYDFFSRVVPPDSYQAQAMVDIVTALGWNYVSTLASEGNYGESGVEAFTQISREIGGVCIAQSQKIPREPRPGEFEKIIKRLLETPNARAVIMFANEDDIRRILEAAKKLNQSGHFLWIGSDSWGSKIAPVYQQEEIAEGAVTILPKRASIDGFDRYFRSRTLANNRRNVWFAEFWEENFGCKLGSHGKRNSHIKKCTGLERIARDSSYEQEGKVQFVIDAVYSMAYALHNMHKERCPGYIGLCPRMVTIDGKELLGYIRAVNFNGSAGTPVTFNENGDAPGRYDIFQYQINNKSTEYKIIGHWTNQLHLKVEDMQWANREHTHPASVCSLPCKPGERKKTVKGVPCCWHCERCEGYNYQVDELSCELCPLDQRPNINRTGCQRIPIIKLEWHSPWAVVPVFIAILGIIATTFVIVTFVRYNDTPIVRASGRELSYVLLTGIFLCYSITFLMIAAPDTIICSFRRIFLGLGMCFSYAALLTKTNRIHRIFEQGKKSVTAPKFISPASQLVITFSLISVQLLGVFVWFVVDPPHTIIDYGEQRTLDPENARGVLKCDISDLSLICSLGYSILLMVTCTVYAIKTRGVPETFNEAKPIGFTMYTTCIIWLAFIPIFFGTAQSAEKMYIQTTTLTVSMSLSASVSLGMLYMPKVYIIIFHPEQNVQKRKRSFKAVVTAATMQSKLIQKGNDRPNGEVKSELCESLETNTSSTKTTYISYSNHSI
With `CC1(C)Cc2c(ccc3ccccc23)C(c2cc3ccccc3oc2=O)=N1` the z-score was -0.0815.
Compound `CC1(c2ccccc2)CC(c2ccccc2)=Nc2nonc2N1` (centres undefined) has a z-score of -0.776.
`CC1CCN(C(=O)C(Cc2ccccc2)NS(=O)(=O)c2ccc3c(c2)oc(=O)n3C)CC1` (centres undefined) gave a z-score of -0.0196.
`COc1ccc(NC(NC(=O)c2ccc(OC)cc2)C(Cl)(Cl)Cl)cc1` (centres undefined) was tested, and the z-score was -0.373.
`COc1cc2c(cc1OC)C(=O)CC(C)S2` (centres undefined) was tested, and the z-score was -0.119.
For `Cc1ccc2cc(C(c3nnnn3C3CCCC3)N(Cc3ccccc3)Cc3ccco3)c(=O)[nH]c2c1` (centres undefined), the z-score was -0.293.
`CC(C)c1ccc2[nH]c(O)c(N=NC(=S)NCCc3ccccc3)c2c1` was tested, and the z-score was 0.396.
`CCn1c(SCC(=O)NC(C)c2ccccc2)nc2ccccc21` (centres undefined) was tested, and the z-score was -0.23.
`c1csc(C2Nc3ccccc3-c3nc4ccccc4n32)c1` (centres undefined) showed a z-score of -0.511.
Compound `CC(=O)c1cccc(NC(=O)c2cc3nc(C)cc(C)n3n2)c1` has a z-score of 0.0482.
Work on `O=C(CCCN1C(=O)c2ccccc2C1=O)NC1CCCCCC1` yielded a z-score of -0.15.
Compound `Nc1c(-c2ccccc2)c(CN2CCOCC2)nn1-c1ccccc1` has a z-score of 0.911.
`COc1ccc(NC(=O)c2nc[nH]c2C(=O)Nc2ccccc2C)cc1` gave a z-score of 0.48.
Work on `CCCn1nc(CC(=O)O)c2ccccc2c1=O` yielded a z-score of -0.0719.
Work on `CCOc1cc(OCC)cc(C(=O)O)c1` yielded a z-score of 0.121.
`CC(C)(C)OC(=O)NCCc1nnc(SCC(=O)Nc2cccc(Cl)c2)o1` gave a z-score of 0.346.
Compound `NC(=O)C1CCN(CC(=O)N2c3ccccc3CCc3ccccc32)CC1` has a z-score of -0.147.
With `Cc1ccc2nc(SCC(=O)N(CC(C)C)c3c(N)n(CC(C)C)c(=O)[nH]c3=O)[nH]c2c1` the z-score was -0.249.
In the case of `Cc1cc(N2CC(C(=O)NCc3cccs3)CC2=O)ccc1C(C)C` (centres undefined), the z-score is reported as -0.0647.
With `O=C(N/N=C/c1cn(-c2ccccc2)nc1-c1ccc(F)cc1)c1ccc(Br)o1` the z-score was 0.601.
In the case of `Cn1nc(C(=O)N2CCN(S(=O)(=O)/C=C/c3ccccc3)CC2)c2ccccc2c1=O`, the z-score is reported as 0.121.
In the case of `Cc1ccc(S(=O)(=O)/N=C(\CN2CCCCC2)N2CCOCC2)cc1`, the z-score is reported as -0.155.
`COC(=O)c1ccc(COc2ncnc3c(Cl)cc(Cl)cc23)o1` was tested, and the z-score was -0.688.
`C/C(=N\NC(=O)c1cccc(Cl)c1)c1cccc(NC(=O)C(C)C)c1` gave a z-score of -0.374.
Work on `COc1ccc(N2C(=O)[C@@H]3[C@H](C2=O)[C@H](C(=O)c2ccc(OC(C)=O)cc2)N2N=CC=C[C@@H]32)cc1` yielded a z-score of -0.805.
In the case of `Cc1cc(NC(=O)c2c(Cl)cnn2C)no1`, the z-score is reported as 0.146.
In the case of `COc1ccc(OC)c(C2C(C(N)=O)=C(C)Nc3nc(CCCO)nn32)c1` (centres undefined), the z-score is reported as 0.624.
Work on `O=C(c1ccccn1)N(Cc1ccco1)C1(C(=O)NC2CCCC2)CCCCC1` yielded a z-score of 0.246.
In the case of `Nc1nnc(CCS(=O)(=O)c2ccc(Cl)cc2)s1`, the z-score is reported as -0.123.
`CCCCn1c(SCC(=O)Nc2sc3c(c2C(N)=O)CCC3)nnc1-c1ccccc1` showed a z-score of -0.917.
`O=c1cc(O)c2c(=O)n(C3CCCCC3)c3ccccc3c2o1` showed a z-score of 1.04.
For `CCOC(=O)C1CCN(c2cc(=O)n(-c3ccccc3Cl)c(=O)[nH]2)CC1`, the z-score was -0.238.
`COc1ccc(CN(C(=O)c2cccs2)C(C(=O)NC2CCCCC2)c2ccc3ncccc3c2)cc1` (centres undefined) gave a z-score of -2.48.
Compound `COc1ccc(CNc2nc3ccccc3n2Cc2ccccc2)cc1OC` has a z-score of -0.482.
Compound `CCCC(C)NC(=O)/C=C/c1cccc([N+](=O)[O-])c1` (centres undefined) has a z-score of -0.0971.
For `CC1CCN(S(=O)(=O)c2ccc3c(c2)oc(=O)n3CC(=O)NCc2ccc3c(c2)OCO3)CC1`, the z-score was -0.0434.
In the case of `CCN1CCCC1CNC(=O)Cn1cccc1C(=O)c1ccccc1C` (centres undefined), the z-score is reported as -0.748.
With `COc1ccc(OC)c(Nc2nc(N)nc(-c3cc4ccccc4o3)n2)c1` the z-score was 0.223.
Work on `CC(=O)c1cn(CC(=O)Nc2ccc(C)cc2)c2ccccc12` yielded a z-score of -0.235.
`O=C(/C=N/O)Nc1ccccc1` showed a z-score of -0.00573.
`O=C(NCc1ccc(F)cc1)C1CCCN1C(=O)NCc1ccccc1` (centres undefined) gave a z-score of -0.471.
Compound `CC1=C(C)CC(C(=O)c2ccc(C)cc2)C(C(=O)O)C1` (centres undefined) has a z-score of 0.0846.
Work on `CCc1nc2c(c(=O)[nH]1)C1(CCCC1)Cc1ccccc1-2` yielded a z-score of -0.276.
In the case of `CCCC(=O)NC(Nc1cccc(C(F)(F)F)c1)C(Cl)(Cl)Cl` (centres undefined), the z-score is reported as -0.917.
`COc1cc2[nH]c(=O)n(CCCCCC(=O)NCCc3c[nH]c4ccccc34)c(=O)c2cc1OC` was tested, and the z-score was -0.0973.
`COc1ccccc1NC(=O)C(C)NS(=O)(=O)c1ccc(F)cc1` (centres undefined) gave a z-score of 0.182.
`O=C(COc1c(Cl)cc(Cl)cc1Cl)c1ccc(Cl)cc1` was tested, and the z-score was -0.103.
`Cc1cc(OCCCC(=O)N2CCCCC2)cc(C)c1Cl` showed a z-score of -0.109.
With `O=C(CSc1nc(-c2ccccc2Cl)ns1)NCc1ccco1` the z-score was -0.983.
`CN(C)CCCOC(=O)c1ccccc1` was tested, and the z-score was -0.0127.
Compound `CCCOc1ccc(-c2nnn(CC(=O)OCC)n2)cc1` has a z-score of 0.875.
For `CCOC(=O)c1c(C)[nH]c(C)c1C(=O)CSc1nnc(-c2ccncc2)n1C`, the z-score was 0.0361.
`O=C(NCc1ccccc1)c1ccco1` showed a z-score of 0.339.
For `CCc1ccc(-c2nc(CN3CCC(C(=O)NCCc4ccc(OC)c(OC)c4)CC3)c(C)o2)cc1`, the z-score was 0.471.
Work on `COc1ccc(-n2nc([N+](=O)[O-])c(=NCc3cccnc3)n2O)cc1` yielded a z-score of 0.122.
Work on `O=C(Cn1cc(C(F)(F)F)ccc1=O)N1CCN(S(=O)(=O)c2ccccc2)CC1` yielded a z-score of -1.45.
`N/C(Cc1ccc(Cl)cc1)=N\OC(=O)C1CCCCC1` gave a z-score of 0.094.
For `CCc1nc2ccccc2n1Cc1ccc(OC)c(OC)c1`, the z-score was 0.0653.
Compound `CCOC(=O)c1nnn(CC(=O)Nc2cc(Cl)ccc2C)c1C(=O)OCC` has a z-score of -0.605.
Work on `Cc1cccc(N(CC(=O)NCCSc2nc3ccccc3s2)S(=O)(=O)c2ccccc2)c1` yielded a z-score of 0.251.
`CC1(c2ccc3noc(-c4ccc(Cl)cc4)c3c2)OCCO1` was tested, and the z-score was -0.278.
For `O=C(NCCN1CCCCC1)c1cc(OCC(F)(F)F)ccc1OCC(F)(F)F`, the z-score was -0.433.
With `O=S(=O)(Nc1ccc2nc(C(F)(F)F)[nH]c2c1)c1ccccc1` the z-score was active: 4.74.
Compound `COc1cccc(-n2c(COc3ccc(C)cc3)nnc2SCC(=O)O)c1` has a z-score of -0.0168.
With `Cc1ccc(-c2nnc(C)c(N3CCOCC3)n2)cc1` the z-score was -0.00745.
Compound `CCOC(=O)N1CCN(C(=O)c2cccn3c(=O)c4sccc4nc23)CC1` has a z-score of -0.0754.
For `O=C(CSc1nnnn1-c1cccc2c1CCCC2)N1CCCC1`, the z-score was 0.0215.
`Cc1ccc[n+](CC(=O)c2cc3ccccc3oc2=O)c1` was tested, and the z-score was -0.335.
Compound `O=C1C(Cc2cccc([N+](=O)[O-])c2)S/C(=N/N=C/c2ccco2)N1c1ccccc1` (centres undefined) has a z-score of -0.0379.

— PubChem BioAssay AID488969 (Vanderbilt High Throughput Screening Facility, 2010)
